Changes are numbered by the printed parent chain. Names and notes keep the numbering of the source. These are yes or no findings as the source states them, for the method shown. Some entries that bind do so weakly or less than the wild type. Values belong to the binder of their own block, whether it stands above or below them.
Columns and labels:
Assay in all cases: two-hybrid; Gal4 system; Grr1 forms as baits in pAS2 (PJ69-4a) mated with PJ69-4α cells holding the prey plasmids (Gal4 activation domain fusions); interaction read as growth of diploids on CM-Trp-Leu-His-Ade
[1] = biological target: T1, Grr1ΔL (Grr1 lacking the leucine-rich repeats) (budding yeast) (UniProt P24814)
T1 sequence: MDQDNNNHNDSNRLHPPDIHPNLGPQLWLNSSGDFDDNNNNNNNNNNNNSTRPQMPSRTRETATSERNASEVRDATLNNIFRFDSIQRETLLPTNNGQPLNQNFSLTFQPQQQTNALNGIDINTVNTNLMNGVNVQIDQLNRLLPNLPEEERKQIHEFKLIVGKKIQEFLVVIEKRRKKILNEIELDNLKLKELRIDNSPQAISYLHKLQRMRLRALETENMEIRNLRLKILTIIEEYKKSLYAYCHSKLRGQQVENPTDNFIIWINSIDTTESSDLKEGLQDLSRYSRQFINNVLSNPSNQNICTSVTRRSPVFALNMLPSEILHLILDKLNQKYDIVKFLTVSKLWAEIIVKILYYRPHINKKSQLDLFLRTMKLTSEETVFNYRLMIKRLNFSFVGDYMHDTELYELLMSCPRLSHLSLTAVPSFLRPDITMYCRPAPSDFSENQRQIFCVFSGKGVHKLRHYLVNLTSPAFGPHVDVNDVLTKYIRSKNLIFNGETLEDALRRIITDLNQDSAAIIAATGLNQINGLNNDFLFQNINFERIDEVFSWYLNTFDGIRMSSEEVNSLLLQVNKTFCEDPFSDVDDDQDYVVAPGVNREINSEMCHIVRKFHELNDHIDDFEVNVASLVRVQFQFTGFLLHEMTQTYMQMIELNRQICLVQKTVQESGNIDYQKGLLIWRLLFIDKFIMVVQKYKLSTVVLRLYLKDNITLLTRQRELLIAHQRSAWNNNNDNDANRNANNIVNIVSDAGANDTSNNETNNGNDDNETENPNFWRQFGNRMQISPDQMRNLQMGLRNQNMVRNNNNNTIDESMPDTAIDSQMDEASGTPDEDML

[2] = biological target: T2, Grr1Δ(F+L) (Grr1 lacking the F box and the leucine-rich repeats) (budding yeast) (UniProt P24814)
T2 sequence: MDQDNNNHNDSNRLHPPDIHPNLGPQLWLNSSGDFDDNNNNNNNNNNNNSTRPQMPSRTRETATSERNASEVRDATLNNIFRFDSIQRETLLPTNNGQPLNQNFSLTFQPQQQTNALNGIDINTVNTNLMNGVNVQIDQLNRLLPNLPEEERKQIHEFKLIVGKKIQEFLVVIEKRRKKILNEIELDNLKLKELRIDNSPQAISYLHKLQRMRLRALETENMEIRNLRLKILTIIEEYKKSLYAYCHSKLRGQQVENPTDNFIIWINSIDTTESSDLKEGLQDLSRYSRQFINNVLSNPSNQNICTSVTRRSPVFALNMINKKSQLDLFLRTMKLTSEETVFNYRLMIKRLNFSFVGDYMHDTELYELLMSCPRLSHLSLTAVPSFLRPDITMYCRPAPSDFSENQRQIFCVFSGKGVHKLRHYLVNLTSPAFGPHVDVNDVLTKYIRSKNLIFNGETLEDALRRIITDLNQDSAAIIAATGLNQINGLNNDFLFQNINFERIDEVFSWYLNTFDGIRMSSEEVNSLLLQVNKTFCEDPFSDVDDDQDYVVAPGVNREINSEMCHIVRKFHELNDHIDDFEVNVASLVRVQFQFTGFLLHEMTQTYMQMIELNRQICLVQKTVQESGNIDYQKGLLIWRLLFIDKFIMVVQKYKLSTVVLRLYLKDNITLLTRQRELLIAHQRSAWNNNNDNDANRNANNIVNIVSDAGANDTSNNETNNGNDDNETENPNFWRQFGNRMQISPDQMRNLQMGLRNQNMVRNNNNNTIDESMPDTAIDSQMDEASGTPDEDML

[3] = biological target: T3, Grr1ΔF (Grr1 lacking the F box) (budding yeast) (UniProt P24814)
T3 sequence: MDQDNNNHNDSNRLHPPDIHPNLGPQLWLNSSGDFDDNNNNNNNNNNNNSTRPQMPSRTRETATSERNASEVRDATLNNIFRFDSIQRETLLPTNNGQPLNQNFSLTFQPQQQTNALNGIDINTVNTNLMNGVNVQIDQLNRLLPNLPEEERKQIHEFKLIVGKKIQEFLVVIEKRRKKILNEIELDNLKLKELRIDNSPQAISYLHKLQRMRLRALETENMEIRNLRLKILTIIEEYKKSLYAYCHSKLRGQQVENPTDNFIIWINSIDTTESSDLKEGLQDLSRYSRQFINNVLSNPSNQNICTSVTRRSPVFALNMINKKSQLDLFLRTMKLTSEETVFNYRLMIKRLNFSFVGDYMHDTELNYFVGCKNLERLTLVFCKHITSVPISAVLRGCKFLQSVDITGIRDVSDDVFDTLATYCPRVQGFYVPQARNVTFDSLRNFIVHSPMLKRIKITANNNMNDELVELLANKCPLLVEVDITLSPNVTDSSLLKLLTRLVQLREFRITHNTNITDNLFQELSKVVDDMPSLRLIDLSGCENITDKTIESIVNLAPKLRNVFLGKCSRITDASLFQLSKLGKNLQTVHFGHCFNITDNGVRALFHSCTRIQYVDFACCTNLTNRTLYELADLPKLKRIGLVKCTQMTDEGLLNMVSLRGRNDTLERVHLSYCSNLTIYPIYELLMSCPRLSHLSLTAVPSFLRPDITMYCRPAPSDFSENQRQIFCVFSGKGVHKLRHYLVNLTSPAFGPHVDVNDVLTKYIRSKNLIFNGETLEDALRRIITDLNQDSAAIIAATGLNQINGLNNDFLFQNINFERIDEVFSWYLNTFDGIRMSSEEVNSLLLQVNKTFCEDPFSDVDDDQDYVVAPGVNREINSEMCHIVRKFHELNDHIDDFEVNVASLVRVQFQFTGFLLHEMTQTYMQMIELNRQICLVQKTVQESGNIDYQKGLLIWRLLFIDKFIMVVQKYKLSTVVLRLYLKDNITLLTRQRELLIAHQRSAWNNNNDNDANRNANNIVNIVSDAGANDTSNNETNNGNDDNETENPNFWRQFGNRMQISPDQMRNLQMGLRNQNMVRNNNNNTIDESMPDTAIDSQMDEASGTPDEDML

binding [1]: no binding
binding [2]: no binding
binding [3]: binds
B1: Pfk27 (protein, UniProt Q12471 1-397)
chain: MGGSSDSDSHDGYLTSEYNSSNSLFSLNTGNSYSSASLDRATLDCQDSVFFDNHKSSLLSTEVPRFISNDPLHLPITLNYKRDNADPTYTNGKVNKFMIVLIGLPATGKSTISSHLIQCLKNNPLTNSLRCKVFNAGKIRRQISCATISKPLLLSNTSSEDLFNPKNNDKKETYARITLQKLFHEINNDECDVGIFDATNSTIERRRFIFEEVCSFNTDELSSFNLVPIILQVSCFNRSFIKYNIHNKSFNEDYLDKPYELAIKDFAKRLKHYYSQFTPFSLDEFNQIHRYISQHEEIDTSLFFFNVINAGVVEPHSLNQSHYPSTCGKQIRDTIMVIENFINHYSQMFGFEYIEAVKLFFESFGNSSEETLTTLDSVVNDKFFDDLQSLIESNGFA

binding [1]: no binding
binding [2]: no binding
binding [3]: binds
B2: Gic2 (protein, UniProt Q06648 1-383)
chain: MTSASITNTGNETMNLPQMRSIWLDEDEEAEKLYGLQAQQFMGSDDEENLGITFINSDKPVLSNKKNIELPPLSPNSHPSCHHRRSNSNSAKSKESSSSSSSANKTNHKKVFLKLNLLKKKLLGAQPDIRGKGISTPFDFQHISHADTRNGFQDEQLQEPSSLSTEIKDDYTSSSSKRDSKSLNKAFVTERIPANRESKLISRSHENKTSRLSVARSISVTSSNYSKNTQGNNHSINGRVVSTSTMATSIFEYSPNASPKQFKNKSHALGHRYTNSTDSSESSLDFLKNYNFPTLLEDKPILDFLPRSQRSSAYRSLLETPNSNKDSAKAFFPSRQSPLPKRRNSIATPSPQSKFSYSDSPVNHRKSFDDVLYSFNQLEPLQT

binding [1]: no binding
binding [2]: no binding
binding [3]: binds
B3: She3 (wild type) (protein, UniProt P38272 1-425)
chain: MSDQDNTQTSSSKLAPHHNIFMANLESSPTKDRNTSSQNASSSRVIESLHDQIDMLTKTNLQLTTQSQNLLSKLELAQSKESKLLENLNLLKNENENLNSIFERKNKKLKELEKDYSELSNRYNEQKEKMDQLSKLAKNSSAIEQSCSEKLQNMEVNYNSLLESQNLYRDHYSDEISKLNEKIGLLELELSNQNLNYGSDTSSNSDIELNLNKFNDSVKDLKSLETEKDSKLSKIITHSLDELNLQSWLNLYQTNENLISTFAEKMDLKDVLKRNDEKISNKGAVVQTLKKNVQTQVESNNADALSSNNAQDMLPIKMVKLRKTPNTNDSSSNGNSSNNKRRSFYTASPLLSSGSIPKSASPVLPGVKRTASVRKPSSSSSKTNVTHNNDPSTSPTISVPPGVTRTVSSTHKKKGNSMVVHGAQS

binding [3]: no binding
B4: She3 (S199P) (protein, UniProt P38272 1-425)
chain: B3 chain with S199P

binding [3]: no binding
B5: She3 (S202R) (protein, UniProt P38272 1-425)
chain: B3 chain with S202R
